# Reference: PubChem BioAssay AID686978 (National Center for Advancing Translational Sciences (NCATS), 2013)
# Screen size: about 420,000 compounds; about 64,000 (15%) were called active. This list was built around the results that the source calls inconclusive (neither active nor inactive); the mix of calls is not that of the screen. Calls come from the whole dose curve; as a rule, active = well fitted inhibition curve with a large enough effect; inconclusive = small, poorly fitted or top-dose-only effect; inactive = flat fitted curve, though single readings scatter. No potency is given beside an inconclusive call; the fits are too rough.
# Assay: qHTS for Inhibitors of human tyrosyl-DNA phosphodiesterase 1 (TDP1): qHTS in cells in absence of CPT; note: nearly all actives have a fitted effect of over 55% in size
# Details: DT40 Tdp1-/- hTDP1 cells, no CPT, ATP luminescence, 48 h; activity change, negative = growth inhibition: at 46.2 µM (top of the series)
# In short: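 Growth kinetics read by CellTiter-Glo luminescence after ≥48 hr at 37 °C. Cells: DT40 Tdp1-/- stably carrying human TDP1, 400 per well, compound exposure in the absence of CPT (DMSO vehicle).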
# % is set by controls: 0 for no effect and ±100 for the full control effect; potency is the fitted concentration of half-maximal effect; tags give direction and shape of the fitted curve.
SMILES,Potency,"activity change, negative = growth inhibition"
COc1ccc(CN2CCC3(CCC(CNC(=O)c4ccnn4C)O3)CC2)c(C)c1C (centres undefined),"inconclusive [inhibitor, partial curve]",
O=C(O)c1ccc(Cl)c(S(=O)(=O)Nc2ccc(S(=O)(=O)N3CCCC3)cc2)c1,,inactive: -3.68%
CSc1nc(SCC(N)=O)c2c3c(sc2n1)CN(C)CC3,"inconclusive [inhibitor, single point]",
COCCNC(=O)c1ccccc1N(Cc1ccccc1)S(=O)(=O)c1ccc(C)cc1,,inactive: -18.2%
O=C(N/C(=C/c1ccc(F)cc1)C(=O)N1CCOCC1)c1ccco1,,inactive: 2.25%
CCOCCCNC(=O)c1cc(-c2ccc(Br)s2)nc2ccccc12,"inconclusive [inhibitor, single point]",
O=C(NC(=S)NC1CCN(Cc2ccccc2)CC1)c1ccc(F)cc1,active: 14.6 µM,
COc1cccc(NC(=O)N2CCCC2C(=O)Nc2ccc3c(c2)OCO3)c1 (centres undefined),"inconclusive [inhibitor, partial curve]",
COCCCn1c(SCC(=O)Nc2ccc(C(=O)OC)cc2)nc2ccccc2c1=O,"inconclusive [inhibitor, single point]",
Cc1cc(C)nc(/N=C(\N)Nc2ccc(CC(=O)OC(C)C)cc2)n1,active: 3.26 µM,
CCOc1ccc(S(=O)(=O)N(C)CC(=O)NC2CC2)cc1,,inactive: -4.31%
COc1ccc([C@H]2C[C@@H](O)[C@H](n3cc(COC(=O)c4ccccc4)nn3)CN2C(=O)c2cccs2)cc1,"inconclusive [inhibitor, partial curve, poor fit]",
COc1cccc2sc(N(Cc3cccnc3)C(=O)Cc3ccccc3)nc12,"inconclusive [inhibitor, single point]",
O=Cc1cn(CC(=O)N2CCCc3ccccc32)c2ccccc12,active: 5.8 µM,
COc1ccc(C2CC(c3ccc([N+](=O)[O-])cc3)=NN2C(C)=O)cc1 (centres undefined),active: 14.6 µM,
Cc1cc(-c2ccc(S(=O)(=O)NCc3ccc(F)cc3)cc2)on1,,inactive: -10.2%
CCN(C(=O)c1cccc(Br)c1)c1ccccc1,,inactive: -25.1%

SMILES,Potency,"activity change, negative = growth inhibition"
Cc1ccc(F)cc1C(=O)N1CCCC(C)(C(=O)NS(=O)(=O)C2CC2)C1 (centres undefined),active: 2.59 µM,
COC(=O)c1ccccc1NC(=O)CN(c1c(C)cccc1C)S(C)(=O)=O,"inconclusive [inhibitor, single point]",
COc1ccc2c3n(nc2c1)CCN=C3c1ccc(C)cc1,"inconclusive [inhibitor, single point]",
CCOC(=O)C1=C(C)Nc2ccccc2N=C1NC(=O)c1ccc(Cl)c(S(=O)(=O)N2CCCC2)c1,"inconclusive [inhibitor, partial curve]",
O=C(NC1CCCCC1)C(c1ccccn1)N(C(=O)c1csnn1)C1CC1 (centres undefined),"inconclusive [inhibitor, single point]",
CCCCn1nnc(NC(=S)NC(=O)c2ccc(OCC)c([N+](=O)[O-])c2)n1,active: 20.6 µM,
CCCCNC(=O)c1ccc2c(c1)NC(=O)C(CS(=O)(=O)Cc1cccc(C)c1)N2 (centres undefined),"inconclusive [inhibitor, single point]",
Cc1ccc(NC(=O)c2cc(S(=O)(=O)NCCc3ccccc3)ccc2F)cc1Cl,"inconclusive [inhibitor, single point]",
Cc1cc(C)nc(-n2nc(C)c(C3(O)C(=O)Nc4ccc(F)cc43)c2N)n1 (centres undefined),"inconclusive [inhibitor, single point]",
COc1ccccc1/C=C1\SC(=S)N(CCC(=O)NCCCN2CCOCC2)C1=O,"inconclusive [inhibitor, single point]",
CCOC(=O)Cc1csc(NC(=O)Nc2cccc(Cl)c2)n1,"inconclusive [inhibitor, single point]",
CCN(CC(=O)Nc1ccc2c(c1)OCCO2)C(=O)c1ccc(S(=O)(=O)N(C)C)cc1,,inactive: -16.1%
CCCCNc1ncnc2c1nnn2C,,inactive: -5.7%
CCCCOCCCNC(=O)C[C@@H]1C[C@@]2(C(=O)OCC)CCCC=C2N(Cc2ccc3c(c2)OCO3)C1=O,"inconclusive [inhibitor, single point]",
CSCCC(NC(=O)c1ccccc1Cl)C(=O)NNC(=O)c1ccccc1O (centres undefined),"inconclusive [inhibitor, single point]",
S=C(c1ccc(-c2ccc(Cl)cc2Cl)o1)N1CCCCC1,"inconclusive [inhibitor, single point]",
Cc1ccc(S(=O)(=O)N2CCN(Cc3noc(CCC(=O)N4CCCCC4)n3)CC2)c(C)c1,"inconclusive [inhibitor, single point]",
